Measured values reported in the RNAGym collection of RNA variant scans (doi:10.1073/pnas.2313332121).
Variants at the floor of the assay are shown more often than the library holds them.

B1: TPR 5TU (parent)
chain: GGAUCUUCUCGAUCUAACAAAAAAGACAAAUCUGCCACAAAGCUUGAGAGCAUCUUCGGAUGCAGAGGCGGCAGCCUUCGGUGGCGCGAUAGCGCCAACGUUCUCAACUAUGACACGCAAAACGCGUGCUCCGUUGAAUGGAGUUUAUCAUG

Variants of: B1
Test: polymerase ribozyme fitness, log enrichment relative to wild type (log ratio); higher = more active; in vitro selection for triplet polymerase activity
Outline: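 PCR was used to build mutant libraries for each subunit of a heterodimeric triplet polymerase ribozyme, which were then transcribed. A single in vitro selection round, in triplicate, used a frozen incubation at −7 °C and recovered extended constructs by gel excision, streptavidin beads and RT-PCR. Fitness is the logarithm of genotype enrichment relative to wild-type enrichment, averaged over replicates with inverse-variance weights. The logarithm is base 2, and after Illumina sequencing only genotypes with ≥10 input reads and ≥1 read per output were kept.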

Going from C38U G86U C118U to C38U G88C G126C A147C, the “polymerase ribozyme fitness (log ratio)” value falls from -2.07 to at most -4.2.

Compared with C38U G92U C95G A106U, C38U G94U is higher in “polymerase ribozyme fitness (log ratio)” value: at most -4.2 for the first, -0.0168 for the second.

C38U G100A A107C G128U and C38U U44A U53A G58A G88C A122G C149U U151C cannot be ordered by “polymerase ribozyme fitness (log ratio)” value: at most -4.2 for the first, at most -4.2 for the second.

Compared with C38U U45A C54A A66C C85U G117A A120C, C38U U53A C105U is higher in “polymerase ribozyme fitness (log ratio)” value: at most -4.2 for the first, 0.169 for the second.

C38U U55A G80A G94C A110U A115U and C38U U55C A64U G94A C103A C125U cannot be ordered by “polymerase ribozyme fitness (log ratio)” value: at most -4.2 for the first, at most -4.2 for the second.

First: C38U U55G A119G
Second: C38U U55G C87A A106G
The “polymerase ribozyme fitness (log ratio)” value of the first is higher: -0.675 for the first, at most -4.2 for the second.

C38U U55G G59A G62A C103A G141C and C38U U61A G62A C85G G140U cannot be ordered by “polymerase ribozyme fitness (log ratio)” value: at most -4.2 for the first, at most -4.2 for the second.

Compared with C38U U78C C95U, A39C A40C A41C G42C G46U G59C C87A U90G U127G G152U is lower in “polymerase ribozyme fitness (log ratio)” value: -0.556 for the first, at most -4.2 for the second.

A39C A40C C96G C108A C123U C125G and A39C A40C G70C G88C U109C cannot be ordered by “polymerase ribozyme fitness (log ratio)” value: at most -4.2 for the first, at most -4.2 for the second.

A39C A40C U77G G81C C95U A120C and A39C A41U G84C C85G U102A U130C cannot be ordered by “polymerase ribozyme fitness (log ratio)” value: at most -4.2 for the first, at most -4.2 for the second.

Compared with A39C A47U, A39C A49U C116G is lower in “polymerase ribozyme fitness (log ratio)” value: -2.53 for the first, at most -4.2 for the second.

Compared with A39C A52G, A39C A52G C123G is lower in “polymerase ribozyme fitness (log ratio)” value: -2.32 for the first, -2.84 for the second.

A39C A52G G70A C99G G100A U144A and A39C A64C C93U cannot be ordered by “polymerase ribozyme fitness (log ratio)” value: at most -4.2 for the first, at most -4.2 for the second.

A39C A64U C96U C116A U148C and A39C A89C C103G cannot be ordered by “polymerase ribozyme fitness (log ratio)” value: at most -4.2 for the first, at most -4.2 for the second.

A39C C54G C93A and A39C C75G A138C cannot be ordered by “polymerase ribozyme fitness (log ratio)” value: at most -4.2 for the first, at most -4.2 for the second.

Compared with A39C C87U U101G G117U, A39C C93U C103U A110U A150U is lower in “polymerase ribozyme fitness (log ratio)” value: -3.2 for the first, at most -4.2 for the second.

A39C C96G A137U and A39C C96G G141C U145C cannot be ordered by “polymerase ribozyme fitness (log ratio)” value: at most -4.2 for the first, at most -4.2 for the second.

A39C C96U A97U A142U G143C and A39C G42C A122U G126C cannot be ordered by “polymerase ribozyme fitness (log ratio)” value: at most -4.2 for the first, at most -4.2 for the second.

A39C G42C C76A U144G and A39C G46A cannot be ordered by “polymerase ribozyme fitness (log ratio)” value: at most -4.2 for the first, at most -4.2 for the second.

A39C G46A C93G A98C C129G and A39C G48A C93U C95G C96A A113U C114U A120G G136C U148G cannot be ordered by “polymerase ribozyme fitness (log ratio)” value: at most -4.2 for the first, at most -4.2 for the second.

A39C G59A C87A U139G and A39C G59U C76G U146G cannot be ordered by “polymerase ribozyme fitness (log ratio)” value: at most -4.2 for the first, at most -4.2 for the second.

A39C G67U C118U A138U and A39C G68A G80A C118U G128U cannot be ordered by “polymerase ribozyme fitness (log ratio)” value: at most -4.2 for the first, at most -4.2 for the second.

A39C G70A U82A C99U C114G U144C and A39C G81A C99U C103G A107G C125U cannot be ordered by “polymerase ribozyme fitness (log ratio)” value: at most -4.2 for the first, at most -4.2 for the second.

A39C G81U C96U C105U A121U U134C U135C U148C and A39C G84A C87G G94U C103G A150C cannot be ordered by “polymerase ribozyme fitness (log ratio)” value: at most -4.2 for the first, at most -4.2 for the second.

A39C G84U U90A U111C U146C and A39C G88C A97G C114G cannot be ordered by “polymerase ribozyme fitness (log ratio)” value: at most -4.2 for the first, at most -4.2 for the second.

A39C G92U G100C U144G and A39C G94C C96U G136U A138U U144G cannot be ordered by “polymerase ribozyme fitness (log ratio)” value: at most -4.2 for the first, at most -4.2 for the second.

A39C U45A A52C G84U and A39C U53A G62C U144A cannot be ordered by “polymerase ribozyme fitness (log ratio)” value: at most -4.2 for the first, at most -4.2 for the second.

A39C U53A G68A A89C and A39C U55A G59C C87G A120G cannot be ordered by “polymerase ribozyme fitness (log ratio)” value: at most -4.2 for the first, at most -4.2 for the second.

A39C U55G C69A C87G and A39C U77A G83A cannot be ordered by “polymerase ribozyme fitness (log ratio)” value: at most -4.2 for the first, at most -4.2 for the second.

A39C U77C C93U and A39C U82G C99G A110U U127A cannot be ordered by “polymerase ribozyme fitness (log ratio)” value: at most -4.2 for the first, at most -4.2 for the second.

A39C U104G U134A G143U and A39C U130G cannot be ordered by “polymerase ribozyme fitness (log ratio)” value: at most -4.2 for the first, at most -4.2 for the second.

A39G A40G A64C A66G A91G C103G C125G U127G G140U and A39G A40G C75G G86A A98G A107G A115U U145A cannot be ordered by “polymerase ribozyme fitness (log ratio)” value: at most -4.2 for the first, at most -4.2 for the second.

A39G A40G U61A A73G C85U A120U and A39G A49C A121U cannot be ordered by “polymerase ribozyme fitness (log ratio)” value: at most -4.2 for the first, at most -4.2 for the second.

A39G A49C U55A A73G G88A G141A A147G and A39G A52C C54G C85U C125U G126U A147C cannot be ordered by “polymerase ribozyme fitness (log ratio)” value: at most -4.2 for the first, at most -4.2 for the second.

A39G A52G G92A and A39G A60C G67U C99G G143C cannot be ordered by “polymerase ribozyme fitness (log ratio)” value: at most -4.2 for the first, at most -4.2 for the second.

A39G A73U C87A and A39G C51U U56A U77A G81C G94A C99G A107G G141U U145A G152U cannot be ordered by “polymerase ribozyme fitness (log ratio)” value: at most -4.2 for the first, at most -4.2 for the second.

First: A39G C54A A91G G94A
Second: A39G C57A C87U
The “polymerase ribozyme fitness (log ratio)” value of the first is lower: at most -4.2 for the first, -1.73 for the second.

A39G C63G G70C C87U A91G C99A A120G and A39G C72A C93A A115U G152C cannot be ordered by “polymerase ribozyme fitness (log ratio)” value: at most -4.2 for the first, at most -4.2 for the second.

Going from A39G C75U C85U A137G to A39G C93U C118U U134A, the “polymerase ribozyme fitness (log ratio)” value falls from -3.67 to at most -4.2.

Going from A39G C99A to A39G G48C G80U A91U G133A G141C, the “polymerase ribozyme fitness (log ratio)” value falls from -3.78 to at most -4.2.

A39G G48U C75U C87A G143A and A39G G50C C63U G81C A91C cannot be ordered by “polymerase ribozyme fitness (log ratio)” value: at most -4.2 for the first, at most -4.2 for the second.

With A39G G58U G59C G124C G136A the “polymerase ribozyme fitness (log ratio)” value was at most -4.2.
